# This is one part of the list. Many values rest on one well or one pass, so single values are uncertain.
# Assays:
# Experiment in all cases: cell count relative to DMSO control; melanoma cells; higher = more viable cells
# Conditions in all cases: library dose: low library concentration; 72 h
# COLO792 = tested on: COLO792
# COLO800 = tested on: COLO800
# COLO829 = tested on: COLO829
# G361 = tested on: G361
# IPC-298 = tested on: IPC-298
# IST-MEL1 = tested on: IST-MEL1
# LB2518-MEL = tested on: LB2518-MEL
# LOXIMVI = tested on: LOXIMVI
# MEL-HO = tested on: MEL-HO
# 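Further: cell number obtained by counting DAPI-stained nuclei in high-throughput microscope images with image analysis software, screen run in 1,536-well plates.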
SMILES,cell count (COLO792),cell count (COLO800),cell count (COLO829),cell count (G361),cell count (IPC-298),cell count (IST-MEL1),cell count (LB2518-MEL),cell count (LOXIMVI),cell count (MEL-HO)
"OCc1c[nH]c2ccccc12 [Indole-3-carbinol] + CN(NC(=O)CC(=O)NN(C)C(=S)c1ccccc1)C(=S)c1ccccc1 [STA4783] (first compound 0.8 µM, partner dose 0.006 µM)",78.5%,73.4%,84.9%,92.3%,103%,78.8%,74.2%,71.2%,98.1%
"Clc1ccc(Nc2nnc(Cc3ccncc3)c3ccccc23)cc1 [vatalanib] + COc1ccc(COc2ccc(Cc3cnc(N)nc3N)cc2OC)cc1 [GW2580] (first compound 2 µM, partner dose 1 µM)",94.2%,86.3%,77.4%,100%,106%,96.3%,89.9%,76.8%,90.5%
"OCc1c[nH]c2ccccc12 [Indole-3-carbinol] + C=CCn1c(=O)c2cnc(Nc3ccc(N4CCN(C)CC4)cc3)nc2n1-c1cccc(C(C)(C)O)n1 [MK1775] (first compound 0.8 µM, partner dose 0.02 µM)",78.2%,68.2%,92.4%,90.4%,102%,106%,90.8%,97.5%,103%
"COCC[n+]1c2c(n(Cc3cnccn3)c1C)C(=O)c1ccccc1C2=O + C=CCn1c(=O)c2cnc(Nc3ccc(N4CCN(C)CC4)cc3)nc2n1-c1cccc(C(C)(C)O)n1 [MK1775] (first compound 0.0004 µM, partner dose 0.02 µM)",96.2%,70.4%,109%,93.4%,82.1%,86%,61.4%,90.7%,103%
"Clc1ccc(Nc2nnc(Cc3ccncc3)c3ccccc23)cc1 [vatalanib] + Cn1cc(/C=C2\C(=O)Nc3cccnc32)c2ccccc21 [GW441756] (first compound 2 µM, partner dose 0.4 µM)",89.1%,86.8%,94.8%,78.7%,90.7%,94.6%,79.1%,70.9%,92.3%
"Nc1cccc2c1CN(C1CCC(=O)NC1=O)C2=O (centres undefined) [lenalidomide] + O=C(O)c1ccc(-c2c[nH]c3ncc(-c4ccccc4)cc23)cc1C1CCCC1 [GSK650394] (first compound 1 µM, partner dose 0.16 µM)",103%,116%,108%,110%,95.1%,104%,91.3%,47.4%,103%
"C#Cc1cccc(Nc2ncnc3cc(OCCOC)c(OCCOC)cc23)c1 [erlotinib] + OCCn1cc(-c2cnc3nnn(Cc4ccc5ncccc5c4)c3n2)cn1 [PF04217903] (first compound 0.8 µM, partner dose 1 µM)",79.7%,,82.1%,107%,95.1%,99.3%,,130%,104%
"COCC[n+]1c2c(n(Cc3cnccn3)c1C)C(=O)c1ccccc1C2=O + COc1cc2c(Oc3ccc4[nH]c(C)cc4c3F)ncnc2cc1OCCCN1CCCC1 [cediranib] (first compound 0.0004 µM, partner dose 0.4 µM)",86.9%,52.5%,88.2%,84.3%,93%,80.8%,81.7%,93%,104%
"COCC[n+]1c2c(n(Cc3cnccn3)c1C)C(=O)c1ccccc1C2=O + CC(C)(C)c1cnc(CSc2cnc(NC(=O)C3CCNCC3)s2)o1 [SNS-032] (first compound 0.0004 µM, partner dose 0.01 µM)",92.7%,54.2%,107%,88.8%,92.3%,82%,91.2%,35.3%,86.9%
"C#Cc1cccc(Nc2ncnc3cc(OCCOC)c(OCCOC)cc23)c1 [erlotinib] + C[C@@H]1CCN(C(=O)CC#N)C[C@@H]1N(C)c1ncnc2[nH]ccc12 [CP690550] (first compound 0.8 µM, partner dose 1 µM)",84.2%,90.6%,87.2%,96%,93.9%,108%,97%,81.7%,94.7%
"Clc1ccc(Nc2nnc(Cc3ccncc3)c3ccccc23)cc1 [vatalanib] + C=CCn1c(=O)c2cnc(Nc3ccc(N4CCN(C)CC4)cc3)nc2n1-c1cccc(C(C)(C)O)n1 [MK1775] (first compound 2 µM, partner dose 0.02 µM)",82%,82.2%,92%,90.3%,94.1%,95%,88.9%,82.9%,91%
"O=C(CCCCCCC(=O)Nc1ccccc1)NO [vorinostat] + OCCn1cc(-c2cnc3nnn(Cc4ccc5ncccc5c4)c3n2)cn1 [PF04217903] (first compound 0.08 µM, partner dose 1 µM)",85.6%,99.4%,89.6%,99.5%,94.2%,100%,,102%,113%
"Clc1ccc(Nc2nnc(Cc3ccncc3)c3ccccc23)cc1 [vatalanib] + Cc1cc(N2CCOCC2)cc2[nH]c(-c3c(NC[C@@H](O)c4cccc(Cl)c4)cc[nH]c3=O)nc12 [BMS536924] (first compound 2 µM, partner dose 0.2 µM)",86.7%,45.5%,119%,106%,99.4%,100%,88.9%,75.8%,93.1%
"Clc1ccc(Nc2nnc(Cc3ccncc3)c3ccccc23)cc1 [vatalanib] + NCC(=O)Nc1ccc(-n2nc(C(F)(F)F)cc2-c2ccc3c(ccc4ccccc43)c2)cc1 [OSU03012] (first compound 2 µM, partner dose 1 µM)",90.6%,94.9%,72.1%,92.7%,70.5%,79.9%,82.5%,77.5%,88.5%
"OCc1c[nH]c2ccccc12 [Indole-3-carbinol] + COc1ccc2c(c1)CCC1C2CCC2(C)C(NCCCCCCN3C(=O)C=CC3=O)CCC12 [U73122] (first compound 0.8 µM, partner dose 0.4 µM)",89.6%,92.5%,78.7%,118%,104%,108%,107%,87.7%,93.6%
"OCc1c[nH]c2ccccc12 [Indole-3-carbinol] + NCC(=O)Nc1ccc(-n2nc(C(F)(F)F)cc2-c2ccc3c(ccc4ccccc43)c2)cc1 [OSU03012] (first compound 0.8 µM, partner dose 1 µM)",91.1%,88.7%,90.8%,107%,85.6%,89.1%,,104%,101%
"C#Cc1cccc(Nc2ncnc3cc(OCCOC)c(OCCOC)cc23)c1 [erlotinib] + Cc1ccc(NC(=O)c2cccc(N(C)C)c2)cc1NC(=O)c1ccc(O)cc1 [ZM336372] (first compound 0.8 µM, partner dose 2 µM)",96.1%,130%,86.3%,95.5%,77%,94.1%,99.9%,104%,97.2%

# From the supplement of paper PMC4604168 (melanoma cell lines)
